# Laboratory results reported in ChEMBL document CHEMBL4888484, “Replenishing the malaria drug discovery pipeline: Screening and hit evaluation of the MMV Hit Generation Library 1 (HGL1) against asexual blood stage Plasmodium falciparum ,using a nano luciferase reporter read-out” (2022).
# Screen size: about 150,000 compounds; about 540 (0.36%) showed an effect of 50% or more. This is one part of the list.
# System: Plasmodium falciparum
# Assay: Primary screen in NF54 nanoGlo assay, in single point, at 2uM, 72h; a lower Z score goes with more inhibition
# Type: functional, Erythrocyte
# Conditions: timepoint 72 hour
SMILES,% Inhibition [%],Z score
Cc1cnc(N2CCOCC2C)nc1N1CCOCC1C (stereo not drawn),-5,0.98
Nc1nc(-c2ccc3c(c2)OCCO3)n[nH]1,5,-1.04
O=C(CCN1CCOc2ccc(CO)cc2C1)Nc1ccc2c(c1)CCC2,6,-0.97
Cc1cccc(NC(=O)CC(=O)NCCN2CCC[C@H](O)C2)c1C,-10,1.74
CC(CCc1ccccc1)NC(=O)C(c1cccnc1)C(C)C (stereo not drawn),30,-3.38
O=C(CN1CCN(S(=O)(=O)c2cccc(F)c2)CC1)c1ccco1,-12,2.25
Cc1cccc2c1OC[C@@H](NS(=O)(=O)CC1(C#N)CCCC1)C2,-7,0.78
COc1ccc(Br)cc1[C@H]1CC(=O)Nc2c1c(C)nn2-c1nc2ccccc2[nH]1,5,-0.58
Cc1nccc(N2CCN(c3nccn3C)CC2)n1,-7,1.34
O=S1(=O)CCN(Cc2ccncc2Cl)[C@H](C2CC2)C1,1,-0.07
CCS(=O)(=O)N1CCC[C@H](Oc2ccncn2)C1,-2,0.28
COc1ccc(-c2cc(C(=O)N3CCc4nnc(C)n4CC3)[nH]n2)cc1,4,-0.53
CCc1cc(C(=O)N(C)[C@@H](CO)C(C)(C)C)[nH]n1,5,-0.72
CCC[C@H](NCc1csc(N(C)C)n1)c1ncccc1Cl,-15,2.06
O=C(NC[C@H]1COCCO1)NC1CCCCCCC1,-3,0.35
CCc1nc(C)sc1CNC(=O)CC[C@@H]1CCCN2CCCC[C@H]12,10,-0.93
COCC(=O)N1CCC2(CCC(N(C)Cc3ccncc3C)CC2)CC1,0,-0.02
COc1cccc(C(=O)N[C@H]2CCc3c(cnc4cc(C)nn34)C2)c1,6,-0.76
Fc1ccc(CN2CCOC[C@H](Oc3ccc(C(F)(F)F)cn3)C2)cc1,-7,1.08
O=C(c1ccoc1)N1C2CCC1CC(S(=O)(=O)c1ccccc1)C2 (stereo not drawn),-6,0.75
Cc1ccc(NC(=O)Nc2c(Cl)cccc2Cl)c2c1CC(C)(C)O2,-2,0.17
COCC(=O)N1CCC(Cn2ccc3cccnc32)CC1,-2,0.33
COc1ccc([C@@]2(O)c3c(ccc(CC=C(C)C)c3O)NC(=O)[C@@H]2OC)cc1 [PENIPREQUINOLONE],29,-3.26
CCOC(=O)[C@H]1NCCN[C@H]1C(=O)OCC,-12,1.4
